# Test results: the supplement of paper PMC8728848
# The other results are listed elsewhere or left out.
# B1: Si Bti9 1b-V5-his (Solanum lycopersicum) (protein)
# chain: MQCNRGCDLALASFYVWRGSNLTLISEMFSTSIADIVSYNNRDNIPNQDSVIAGTRINIPFRCDCLNDGEVLGHAFPYRVKSGDTYDLVARNYSDLTTAQWMMKFNSYPENNIPNTVNLSVVVNCSCGNSDVSKDFGLFVTYPVRAEDNLTSVASAANVSEDIIRRYNPAAVSILDIGQGIIYIPGRDRNGNFPPLPTSTDGLSGGAKKGGRADPAFLYKVVINSKLEGKPIPNPLLGLDSTRTGHHHHHH
# Legend:
# Test in all cases: glycan array binding signal (z-score within array); higher = stronger binding
# Conditions in all cases: glycan notation: IUPAC condensed, linker removed
# Fuc(a1-2)Gal = target: Fuc(a1-2)Gal
# Procedure, shortened: (§1)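 The binding signal is a Z-score computed within each array and averaged over linkers. Arrays of the same protein sequence at different concentrations or buffers were also averaged together. Data originate from 3228 arrays in the Consortium for Functional Glycomics database, kept only where the protein sequence was available.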
# Fuc(a1-2)Gal(b1-3)GalNAc = target: Fuc(a1-2)Gal(b1-3)GalNAc
# Procedure, shortened: as §1
# [1] = target: Fuc(a1-2)Gal(b1-3)GalNAc(a1-3)[Fuc(a1-2)]Gal(b1-4)Glc
# Procedure, shortened: as §1
# [2] = target: Fuc(a1-2)Gal(b1-3)GalNAc(a1-3)[Fuc(a1-2)]Gal(b1-4)GlcNAc
# Procedure, shortened: as §1
# [3] = target: Fuc(a1-2)Gal(b1-3)GalNAc(b1-3)Gal
# Procedure, shortened: as §1
# [4] = target: Fuc(a1-2)Gal(b1-3)GalNAc(b1-3)Gal(a1-4)Gal(b1-4)Glc
# Procedure, shortened: as §1
# [5] = target: Fuc(a1-2)Gal(b1-3)GalNAc(b1-4)[Neu5Ac(a2-3)]Gal(b1-4)Glc
# Procedure, shortened: as §1
# Fuc(a1-2)Gal(b1-3)GlcNAc = target: Fuc(a1-2)Gal(b1-3)GlcNAc
# Procedure, shortened: as §1
# [6] = target: Fuc(a1-2)Gal(b1-3)GlcNAc(b1-2)Man(a1-3)[Fuc(a1-2)Gal(b1-3)GlcNAc(b1-2)Man(a1-6)]Man(b1-4)GlcNAc(b1-4)GlcNAc
# Procedure, shortened: as §1
# [7] = target: Fuc(a1-2)Gal(b1-3)GlcNAc(b1-2)Man(a1-3)[Fuc(a1-2)Gal(b1-3)GlcNAc(b1-2)Man(a1-6)]Man(b1-4)GlcNAc(b1-4)[Fuc(a1-6)]GlcNAc
# Procedure, shortened: as §1
# [8] = target: Fuc(a1-2)Gal(b1-3)GlcNAc(b1-3)Gal(b1-4)Glc
# Procedure, shortened: as §1
# [9] = target: Fuc(a1-2)Gal(b1-3)GlcNAc(b1-3)GalNAc
# Procedure, shortened: as §1
# [10] = target: Fuc(a1-2)Gal(b1-3)GlcNAc(b1-3)[Fuc(a1-2)Gal(b1-3)GlcNAc(b1-6)]GalNAc
# Procedure, shortened: as §1
# [11] = target: Fuc(a1-2)Gal(b1-3)GlcNAc(b1-3)[Gal(b1-4)GlcNAc(b1-6)]Gal(b1-4)Glc
# Procedure, shortened: as §1
# [12] = target: Fuc(a1-2)Gal(b1-3)GlcNAc(b1-3)[Neu5Ac(a2-6)Gal(b1-4)GlcNAc(b1-6)]Gal(b1-4)Glc
# Procedure, shortened: as §1
# [13] = target: Fuc(a1-2)Gal(b1-3)GlcNAc6S
# Procedure, shortened: as §1
# [14] = target: Fuc(a1-2)Gal(b1-3)[Fuc(a1-4)]GlcNAc
# Procedure, shortened: as §1
# [15] = target: Fuc(a1-2)Gal(b1-3)[Fuc(a1-4)]GlcNAc(b1-2)Man(a1-3)[Fuc(a1-2)Gal(b1-3)[Fuc(a1-4)]GlcNAc(b1-2)Man(a1-3)]Man(b1-4)GlcNAc(b1-4)GlcNAc
# Procedure, shortened: as §1
# [16] = target: Fuc(a1-2)Gal(b1-3)[Fuc(a1-4)]GlcNAc(b1-2)Man(a1-3)[Fuc(a1-2)Gal(b1-3)[Fuc(a1-4)]GlcNAc(b1-2)Man(a1-6)]Man(b1-4)GlcNAc(b1-4)[Fuc(a1-6)]GlcNAc(b1-4)[Fuc(a1-6)]GlcNAc
# Procedure, shortened: as §1
# [17] = target: Fuc(a1-2)Gal(b1-3)[Fuc(a1-4)]GlcNAc(b1-3)[Fuc(a1-3)[Gal(b1-4)]GlcNAc(b1-6)]Gal(b1-4)Glc
# Procedure, shortened: as §1
# [18] = target: Fuc(a1-2)Gal(b1-3)[Fuc(a1-4)]GlcNAc(b1-3)[Gal(b1-4)GlcNAc(b1-6)]Gal(b1-4)Glc
# Procedure, shortened: as §1
# Fuc(a1-2)Gal(b1-4)Glc = target: Fuc(a1-2)Gal(b1-4)Glc
# Procedure, shortened: as §1
# Fuc(a1-2)Gal(b1-4)Glc6S = target: Fuc(a1-2)Gal(b1-4)Glc6S
# Procedure, shortened: as §1
# Fuc(a1-2)Gal(b1-4)GlcNAc = target: Fuc(a1-2)Gal(b1-4)GlcNAc
# Procedure, shortened: as §1
# [19] = target: Fuc(a1-2)Gal(b1-4)GlcNAc(b1-2)Man
# Procedure, shortened: as §1
# [20] = target: Fuc(a1-2)Gal(b1-4)GlcNAc(b1-2)Man(a1-3)[Fuc(a1-2)Gal(b1-4)GlcNAc(b1-2)Man(a1-6)]Man(b1-4)GlcNAc(b1-4)GlcNAc
# Procedure, shortened: as §1
# [21] = target: Fuc(a1-2)Gal(b1-4)GlcNAc(b1-2)Man(a1-3)[Fuc(a1-2)Gal(b1-4)GlcNAc(b1-2)Man(a1-6)]Man(b1-4)GlcNAc(b1-4)[Fuc(a1-6)]GlcNAc
# Procedure, shortened: as §1
# [22] = target: Fuc(a1-2)Gal(b1-4)GlcNAc(b1-2)[Fuc(a1-2)Gal(b1-4)GlcNAc(b1-4)]Man(a1-3)[Fuc(a1-2)Gal(b1-4)GlcNAc(b1-2)Man(a1-6)]Man(b1-4)GlcNAc(b1-4)GlcNAc
# Procedure, shortened: as §1
# [23] = target: Fuc(a1-2)Gal(b1-4)GlcNAc(b1-3)Gal(b1-4)GlcNAc
# Procedure, shortened: as §1
# [24] = target: Fuc(a1-2)Gal(b1-4)GlcNAc(b1-3)Gal(b1-4)GlcNAc(b1-2)Man(a1-3)[Fuc(a1-2)Gal(b1-4)GlcNAc(b1-3)Gal(b1-4)GlcNAc(b1-2)Man(a1-6)]Man(b1-4)GlcNAc(b1-4)GlcNAc
# Procedure, shortened: as §1
# [25] = target: Fuc(a1-2)Gal(b1-4)GlcNAc(b1-3)Gal(b1-4)GlcNAc(b1-3)Gal(b1-4)GlcNAc
# Procedure, shortened: as §1
# [26] = target: Fuc(a1-2)Gal(b1-4)GlcNAc(b1-3)GalNAc
# Procedure, shortened: as §1
# [27] = target: Fuc(a1-2)Gal(b1-4)GlcNAc(b1-3)[Fuc(a1-2)Gal(b1-4)GlcNAc(b1-6)]GalNAc
# Procedure, shortened: as §1
# [28] = target: Fuc(a1-2)Gal(b1-4)GlcNAc(b1-3)[Fuc(a1-3)[Gal(b1-4)]GlcNAc(b1-6)]Gal(b1-4)Glc
# Procedure, shortened: as §1
# [29] = target: Fuc(a1-2)Gal(b1-4)GlcNAc(b1-6)GalNAc
# Procedure, shortened: as §1
# [30] = target: Fuc(a1-2)Gal(b1-4)GlcNAc6S
# Procedure, shortened: as §1
# [31] = target: Fuc(a1-2)Gal(b1-4)[Fuc(a1-3)]GlcNAc
# Procedure, shortened: as §1
binder,measurement,setting,value
B1,glycan array binding signal (z-score),Fuc(a1-2)Gal,-0.052
same,glycan array binding signal (z-score),Fuc(a1-2)Gal(b1-3)GalNAc,-0.261
same,glycan array binding signal (z-score),[1],-0.052
same,glycan array binding signal (z-score),[2],-0.137
same,glycan array binding signal (z-score),[3],0.024
same,glycan array binding signal (z-score),[4],-0.123
same,glycan array binding signal (z-score),[5],-0.101
same,glycan array binding signal (z-score),Fuc(a1-2)Gal(b1-3)GlcNAc,0.033
same,glycan array binding signal (z-score),[6],-0.021
same,glycan array binding signal (z-score),[7],0
same,glycan array binding signal (z-score),[8],-0.178
same,glycan array binding signal (z-score),[9],-0.034
same,glycan array binding signal (z-score),[10],0.167
same,glycan array binding signal (z-score),[11],-0.17
same,glycan array binding signal (z-score),[12],-0.066
same,glycan array binding signal (z-score),[13],-0.157
same,glycan array binding signal (z-score),[14],-0.351
same,glycan array binding signal (z-score),[15],-0.045
same,glycan array binding signal (z-score),[16],-0.225
same,glycan array binding signal (z-score),[17],-0.231
same,glycan array binding signal (z-score),[18],-0.239
same,glycan array binding signal (z-score),Fuc(a1-2)Gal(b1-4)Glc,-0.123
same,glycan array binding signal (z-score),Fuc(a1-2)Gal(b1-4)Glc6S,-0.231
same,glycan array binding signal (z-score),Fuc(a1-2)Gal(b1-4)GlcNAc,-0.23
same,glycan array binding signal (z-score),[19],-0.132
same,glycan array binding signal (z-score),[20],0.1
same,glycan array binding signal (z-score),[21],0.062
same,glycan array binding signal (z-score),[22],-0.096
same,glycan array binding signal (z-score),[23],-0.322
same,glycan array binding signal (z-score),[24],-0.075
same,glycan array binding signal (z-score),[25],-0.305
same,glycan array binding signal (z-score),[26],-0.217
same,glycan array binding signal (z-score),[27],-0.135
same,glycan array binding signal (z-score),[28],-0.378
same,glycan array binding signal (z-score),[29],-0.001
same,glycan array binding signal (z-score),[30],-0.305
same,glycan array binding signal (z-score),[31],-0.255
